Assay results: article PMC6919601, “Identification of Plasmodium dipeptidyl aminopeptidase allosteric inhibitors by high throughput screening” (PLoS ONE, 2019)
Where “and” joins values, the source holds several entries; their conditions need not be identical. Identical values can stand only once. Hit rate of the full screen: of about 110,000 compounds, about 230 (0.21%) showed an effect of 50% or more. The list shows a part of the results.

Biological target: DPAP1 (Plasmodium falciparum, UniProt Q8IIJ9)
Assay: primary screen, percent inhibition; read by cleavage of a fluorogenic dipeptide substrate; higher = more effect of the substance
Set-up: species or system P. falciparum D10 trophozoite lysates; single well
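Further: 30 min substrate incubation versus DMSO and 10 µM JCP410 controls.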

Chain of DPAP1 (Q8IIJ9 whole entry, looked up): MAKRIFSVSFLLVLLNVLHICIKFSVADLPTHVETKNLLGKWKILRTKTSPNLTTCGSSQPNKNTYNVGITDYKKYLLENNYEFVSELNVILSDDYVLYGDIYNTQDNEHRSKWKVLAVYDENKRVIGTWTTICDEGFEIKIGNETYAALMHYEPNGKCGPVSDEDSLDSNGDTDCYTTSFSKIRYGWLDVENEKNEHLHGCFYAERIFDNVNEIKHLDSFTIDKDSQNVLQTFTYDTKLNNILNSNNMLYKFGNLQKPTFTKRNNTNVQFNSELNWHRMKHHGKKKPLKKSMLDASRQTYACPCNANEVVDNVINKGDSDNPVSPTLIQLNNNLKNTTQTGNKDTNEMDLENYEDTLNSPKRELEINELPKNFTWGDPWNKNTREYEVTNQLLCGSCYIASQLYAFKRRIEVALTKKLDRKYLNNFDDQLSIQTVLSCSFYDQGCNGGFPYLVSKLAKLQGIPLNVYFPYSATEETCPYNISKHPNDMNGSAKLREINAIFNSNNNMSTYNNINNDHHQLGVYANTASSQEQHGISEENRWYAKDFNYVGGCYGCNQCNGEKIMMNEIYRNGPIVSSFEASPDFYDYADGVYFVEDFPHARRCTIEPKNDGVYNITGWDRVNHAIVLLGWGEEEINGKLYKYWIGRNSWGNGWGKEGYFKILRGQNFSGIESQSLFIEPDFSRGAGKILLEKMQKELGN

Structure (SMILES) | % Inhibition @ 10 uM
O=C(CSc1nc2ccccc2[nH]1)Nc1ccc(Br)cc1 | 11.3%
CCCCSC1=C(C#N)C(=O)NC(CC(C)C)S1 (centres unmarked) | 3.35%
CCCCN(C)CCNC(=O)c1cc2c(=O)oc3ccc(C)cc3c2s1 | -4.31%
N#Cc1nc(COc2ccccc2)oc1NCc1ccc(F)cc1 | 1.35%
COc1ccc2c(CNCc3ccc(OC(C)C)cc3)c(C(=O)O)n(Cc3ccccc3F)c2c1 | 0.616%
CC(C)c1ccc(OCc2cccc(C(=O)O)c2)cc1 | 5.31%
O=C(Nc1nnc(Cc2ccccc2F)s1)c1ccccc1Cl | 4.35%
O=C(c1cnn(-c2ccccc2)c1-n1cccc1)N1CCN(C2CCCCC2)CC1 | 0.137%
CCOC(=O)N1CCN(S(=O)(=O)N2CCCC(C(=O)NCCCN3CCC(C)CC3)C2)CC1 (centres unmarked) | -1.34%
CC1CCCC(C)N1CCCNc1ncnc2onc(-c3ccc(F)cc3)c12 (centres unmarked) | 2.59%
Cc1cc2c(c(=O)n1Cc1cccs1)C(c1cccs1)C(C#N)=C(N)O2 (centres unmarked) | -8.72%
Cc1ccc(C2C(C#N)=C(N)Oc3[nH]nc(-c4ccccc4)c32)cc1 (centres unmarked) | -0.988%
COc1ccc(OC)c([N+]2=C3SCCCN3C(O)(c3cccs3)C2)c1 (centres unmarked) | 1.09%
CCN(CC)CC(=O)Nc1c2c(nc3ccccc13)N(C)CC2 | -3.16% and -3.63%
Cc1cccc(NC(=O)c2ccc(C)c(C)c2)n1 | 2.82%
CCCN1CCN(CCCNC(=O)Cn2cc3c(n2)CCCC3)CC1 | 1.8%
COCC(=O)Nc1ccc(F)cc1F | -4.15%
COc1ccc(-c2sc(C(=O)O)c(C)c2C#N)cc1 | 9.79%
Cc1ccc(/C=C2/SC(N3CCCCC3)=NC2=O)o1 | 3.05%
Cc1c2cnn(CC(=O)NC(C)c3ccc4c(c3)OCCO4)c(=O)c2c(C)n1Cc1ccc(F)cc1 (centres unmarked) | -7.72%
COc1ccc(C(=O)N2CCN(c3nc4ccccc4o3)CC2)cc1OC | -0.834%
CCC(=C1C(=O)CC(C)(C)CC1=O)N1CCCC1 | -3.46%
COc1ccc(Cn2ccn(CC(N)=O)c(=O)c2=O)cc1 | -9.33%
Cc1ccccc1Cn1c(C)c(CNCCc2ccc(S(N)(=O)=O)cc2)c(C(=O)O)c1C | -3.67%
CC1(c2ccccc2)CC(C)(C)N(C(=O)c2ccc([N+](=O)[O-])cc2)c2ccccc21 (centres unmarked) | 1.08%
CC(C)NC(=O)c1cc2c(s1)-c1ccccc1SC2 | 2.85%

Structure (SMILES) | % Inhibition @ 10 uM
CCN(CC)C(=O)C(=O)c1cn(Cc2ccc(Cl)cc2)c2ccccc12 | -0.92%
COc1cccc(C2=NCCc3cc4c(cc32)OCO4)c1OC | 3.9%
Cc1ccc(S(=O)(=O)Cc2nc(-c3ccc(C(=O)NCCC(C)C)cc3)oc2C)cc1 | -5.35%
COc1ccc(C2C(C(=O)c3ccc(OC)c(F)c3)=C(O)C(=O)N2Cc2cccnc2)cc1 (centres unmarked) | -1.89%
Cc1nc2c(c(C)nn2-c2ccccc2)c(C)c1CCC(=O)NCC1CCN(CC(C)C)C1 (centres unmarked) | -0.465%
O=C(c1ccco1)N1c2ccccc2Sc2ccccc21 | -4.52%
COc1cccc(C(=O)Nc2ccc(S(=O)(=O)NCCc3ccccc3)cc2)c1 | -2.67%
COCCNC(=O)Cn1nc(-c2ccc(Cl)cc2)ccc1=O | -3.58%
CCCNC(=O)C1CC(c2cc(OC)c(OC)c(OC)c2)=NO1 (centres unmarked) | -5.79%
COc1ccc(NC(=O)c2ccccc2C)cc1 | -7.3%
COc1cc2c(cc1OC)C1N(CC2)C(C(=O)c2cccs2)=NN1c1ccccc1 (centres unmarked) | 4.11%
Cc1ccc(C)c(NC(=O)c2cnn(-c3ccccc3)c2C)c1 | -1.63%
O=C(NCc1ccccc1)C1CC1(c1ccccc1)c1ccccc1 (centres unmarked) | 2.55%
Brc1ccc(N2N=C(c3cccs3)CC2c2ccco2)cc1 (centres unmarked) | 0.827%
COc1ccccc1C1(CCNC(=O)c2ccccc2C(=O)O)CCOC(C)(C)C1 (centres unmarked) | -0.85%
CCN1C(=O)C2(C(C#N)=C(N)OC3=C2C(=O)CC(C)(C)C3)c2ccccc21 (centres unmarked) | 7.2%
Cc1cc(=O)n2nc(N3CCC(C(=O)NCC(C)c4ccccc4)CC3)sc2n1 (centres unmarked) | -0.281%
COCCN1C(=O)c2ccccc2C(C(=O)N2CCC(c3ccccc3)C2)C1c1cccs1 (centres unmarked) | 1.97%
OC[C@H]1O[C@@H](n2c(Br)nc3c(O)ncnc32)[C@H](O)[C@@H]1O | -2.35%
NC(=O)c1ccccc1C(=O)Nc1cccc2ccccc12 | 0.716%
CC(C)(C)OC(=O)Nc1ccncc1C(=O)c1ccccc1 | -7.01%
Cc1ccc(C(=O)N2CCN(c3ccc(NC(=O)c4ccco4)cc3)CC2)cc1 | 3.69%
CCn1c(C(=O)O)c(CNCCc2ccc(OC)c(OC)c2OC)c2ccc(OC)cc21 | 1.8%
O=C(O)CC(NS(=O)(=O)c1ccc([N+](=O)[O-])cc1)c1ccccc1 (centres unmarked) | -0.0372%
CC(NC(=O)c1c(O)nc2c(c1O)CCCC2)c1ccccc1 (centres unmarked) | -0.458%
CCC(C(=O)Nc1ccc(Cl)cc1)N1CCCC1=O (centres unmarked) | 1.19%

Structure (SMILES) | % Inhibition @ 10 uM
CCOc1ccc(-c2cc3cccc(OC)c3oc2=O)cc1 | 4.61%
O=C(O)C12CC3CC(C1)CC(n1ncc(NCc4ccc5c(c4)OCO5)c(Cl)c1=O)(C3)C2 | -0.486%
CCOc1cccc2c1OC(c1ccc(C(=O)OC)cc1)N1N=C(c3ccc(C)o3)CC21 (centres unmarked) | 30.6%
CCC(C)Nc1nc2c(S(=O)(=O)c3ccccc3)nnn2c2ccsc12 (centres unmarked) | -1.01%
COc1ccc2occ(CC(=O)Nc3nnc(C(C)C)s3)c2c1 | 0.401%
O=C(c1ccccc1)c1ccc2nc(NCc3ccccc3Cl)c3nncn3c2c1 | -0.341%
CCN1CCCC1CNC(=O)CS(=O)Cc1nc(-c2ccc(OC)c(OC)c2)oc1C (centres unmarked) | -8.65%
COc1cc2nc(Cl)n(C)c2cc1OC | -4.11%
Cn1nc(C(=O)N(CCCN2CCOCC2)Cc2ccco2)c2c1-c1ccccc1OC2 | -1.72%
Clc1ccc(-n2nnc(-c3ccccc3)n2)cc1Cl | 1.67%
O=C(O)[C@@H](c1ccccc1)N1C(=O)c2ccccc2C1=O | 2.39%
COc1ccc(C(=O)Nc2ccc(C(C)C)cc2)cc1Cl | 3.17%
COc1ccccc1C1CN(c2ccc(F)cc2F)N=C1c1cccs1 (centres unmarked) | 6.49%
CS(=O)(=O)N(CC(=O)Nc1ccc(Cl)cc1Cl)Cc1ccccc1 | -3.78%
Cc1nc(O)c2c(n1)OC(N)=C(C#N)C2c1cccnc1 (centres unmarked) | 1.26%
CC(C)=CCC/C(C)=C\CC(C)(C)/C=N/O | -0.771%
CCc1cccc(C)c1NC(=O)c1cc(OC)cc(OC)c1 | 15.2%
Cc1ccc2oc(=O)c3cnn(CC(=O)Nc4cc(-c5ccccc5)[nH]n4)c3c2c1 | -5.25%
Cn1nc(C(=O)NC(c2ccccc2)c2ccccc2)c2ccccc2c1=O | -4.49%
COc1ccc(CCNC(=O)CCCCn2c(=O)[nH]c3ccsc3c2=O)cc1OC | -4.06%
Cc1cc(O)nc(N2CCOCC2)n1 | 1.91%
CCOC(=O)c1cc2cccc(OC)c2oc1=O | 1.31%
CCCc1cc(C(=O)N2CCN(C(c3ccccc3)c3ccccc3)CC2)no1 | -3.77%
COc1ccc(-c2cc(-c3ccccc3)nc(N3CCOCC3)n2)cc1OC | -2.6%
CC(C)(C)C(=O)NCCSc1nnnn1-c1ccccc1 | -2.85%
CCCCCC(C)NC(=O)c1ccco1 (centres unmarked) | -6.06%

Structure (SMILES) | % Inhibition @ 10 uM
CC(=O)N1c2ccccc2C(C)CC12CCCCC2 (centres unmarked) | -4.32%
CCn1ccc(C(=O)Nc2ccccc2Sc2ccccc2)n1 | 0.5%
Clc1ccccc1-c1nc2c3cnn(Cc4ccccc4)c3ncn2n1 | 0.569%
CCCn1c(=O)c2sccc2n2c(CCCC(=O)N3CCCC3)nnc12 | -0.212%
COc1ccccc1NC(=O)c1ccc(COc2ccccc2OC)cc1 | -1.28%
Cc1cc(C)c2c(-n3cccc3)c(C(=O)NCc3cccnc3)sc2n1 | 0.623%
CC1(C)CC2CC(C)(CN2C(=O)C2CC(c3ccc(F)cc3)=NO2)C1 (centres unmarked) | 1.03%
CCOC(=O)c1c(NC(=O)Cc2ccccc2)sc(C(=O)NC2CCCC2)c1C | 0.565%
C=CCn1c(=O)c(C(=O)Nc2nc3ccc(Br)cc3s2)c(O)c2ccccc21 | -7.9%
O=C(CSc1nc(O)c2ccccc2n1)c1ccc(O)c(O)c1 | 3.05%
COc1ccc(CNc2nc(-c3cccnc3)nn2C(=O)Cc2ccccc2)cc1 | -4.75%
CCOc1ccc(NS(=O)(=O)Cc2ccccc2)cc1 | 6.5%
CCn1c(C)nc2cc(C(=O)O)c(C(=O)O)cc21 | -1.06%
Cc1ccc2c(=O)cc(C(=O)Nc3nc4ccc(S(C)(=O)=O)cc4s3)oc2c1C | -1.47%
CCCCNC(=O)CCc1nc(-c2cccc(C)c2)no1 | -0.45%
CCCc1c(C(=O)OCC)[nH]c2c1C(=O)CCC2 | 4.63%
COc1ccc(C(=O)CSc2nc(-c3ccco3)nc3c2c(=O)n(C)c(=O)n3C)cc1 | 2.34%
CC(=O)c1cccc(NS(=O)(=O)c2cccc(C(=O)Nc3ccccc3C(=O)O)c2)c1 | -0.622%
C#CCN(CC(=O)C(C)(C)C)C(C)(C)C | -1.5%
Cn1cccc1/C=C1\CCc2ccccc2C1=O | 1.07%
S=c1sc2ccccc2n1CN1CCOCC1 | 13.1%
Cc1ccc(/C=C2\CC(NCc3ccccc3)C(=O)O2)o1 (centres unmarked) | -2.41%
O=C(Nc1nc(-c2ccc(Cl)cc2Cl)cs1)C1CCCO1 (centres unmarked) | 0.408%
